# The campaign covered roughly 340,000 compounds. About 12,000 (3.5%) were called active. Inconclusive means that the source gave no clear call. Such entries were picked first, then a sample of the others. The call rests on the fitted dose curve; in most records, active means well fitted inhibition curve with a large enough effect; inconclusive means small, poorly fitted or top-dose-only effect, or another doubt; inactive means no such curve, though single readings can be large or run the other way. No potency is given beside an inconclusive call; the fits are too rough.
# Experiment: qHTS Assay for Inhibitors of Hepatitis C Virus (HCV)
# Conditions: Huh7.5.1 HCVcc-Cre (HCVcc is cell-culture hepatitis C virus) infection, luciferase reporter, 44 h; series mostly up to 41.8 µM
# Method in brief: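 Seed cells (1,000/well) for 4 h; treat with compound and infect with HCVcc-Cre, moi about 0.5. Incubate 44 h, then detect luciferase activity.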
# Potency means the concentration at half of the fitted maximal effect; tags describe the fitted curve by direction and shape.
row,SMILES,Potency
1,O=C(COc1ccc([N+](=O)[O-])cc1Cl)N1CCc2ccccc21,inactive
2,O=C(Cn1cnc([N+](=O)[O-])n1)N/N=C/c1ccc(O)cc1O,"inconclusive [inhibitor, single point]"
3,CC1CCN(C(=O)Cn2cnc3c(cnn3C(C)(C)C)c2=O)CC1,"inconclusive [inhibitor, single point]"
4,Cc1ccc(Nc2ccc(C(=O)NC3CCCCC3)cn2)cc1,inactive
5,Cc1ccsc1/C=N/NC(=O)c1cc(-c2ccncc2)nc2ccccc12,"inconclusive [inhibitor, single point]"
6,COc1ccc2nc3c(nc2c1)CCCC3,inactive
7,COc1ccc(/C=N/NS(=O)(=O)c2ccc(F)cc2)cc1COc1cc(F)ccc1[N+](=O)[O-],"inconclusive [inhibitor, partial curve]"
8,NS(=O)(=O)c1ccc(CNc2ccc3ccccc3n2)cc1,inactive
9,COc1ccc(CN(CC(O)COCc2ccccc2)S(=O)(=O)c2ccccc2Br)cc1 (stereo not given),"inconclusive [inhibitor, full curve]"
10,Cc1nc2ccccc2c(=O)n1NC(=O)c1ccccc1F,inactive
11,CN(C)CCN1C(=O)C(=O)/C(=C(/O)c2ccc(OCc3ccccc3)cc2)C1c1ccncc1 (stereo not given),"inconclusive [inhibitor, single point]"
12,CCOc1ccc(/C(O)=C2/C(=O)C(=O)N(c3nc(C)c(C)s3)C2c2ccco2)cc1 (stereo not given),inactive
13,CCOC(=O)c1ccc(Oc2cn[nH]c2-c2ccc(OCC(=O)NN)cc2O)cc1,inactive
14,O=C(CN1CCCC1)Nc1ccc(Br)cc1,inactive
15,Cc1cc(C(=O)CN2C(=O)NC(C)(c3ccccc3)C2=O)c(C)n1CC1CCCO1 (stereo not given),inactive
16,CCOc1ccc(NC(=O)CCN2CCN(S(=O)(=O)c3ccc(Cl)cc3)CC2)cc1,"inconclusive [inhibitor, single point]"
17,Cn1c(SCC(=O)NCc2ccc3c(c2)OCO3)nc2scc(-c3cccs3)c2c1=O,"inconclusive [inhibitor, single point]"
18,CC(C)c1cccc(C(C)C)c1NC(=O)c1ccccc1,inactive
19,COc1ccc(CCNC(=O)C2CC(c3ccc([N+](=O)[O-])cc3)=NO2)cc1 (stereo not given),"inconclusive [inhibitor, single point]"
20,Cc1sc(N/N=C/c2cccs2)nc1-c1ccccc1,"inconclusive [inhibitor, partial curve]"
21,CC1CCN(c2oc(-c3cccc4ccccc34)nc2C#N)CC1,inactive
22,COc1nc(Nc2ccc(C(C)C)cc2)nc(OC)n1,"inconclusive [inhibitor, partial curve]"
23,O=C(Nc1ccc(-n2cc(Br)cn2)cc1)c1ccncc1,"inconclusive [inhibitor, partial curve]"
24,O=C(/C=C/c1cccs1)Nc1ccc(N2CCOCC2)c(S(=O)(=O)Nc2cc(Cl)ccc2Cl)c1,"inconclusive [inhibitor, partial curve]"

row,SMILES,Potency
1,CC(C)c1ccc(-c2csc3nc[nH]c(=O)c23)cc1,inactive
2,CCOc1ccc(Br)cc1CNc1ccc2c(c1)OCCO2,active: 11.2 µM
3,CC(C)N(C(=O)CSc1nc2ccccc2n1Cc1ccccc1F)C(C)C,"inconclusive [inhibitor, partial curve, poor fit]"
4,O=C(Nc1ccc(C(F)(F)F)cc1)c1cc(S(=O)(=O)NCC2COc3ccccc3O2)ccc1F (stereo not given),"inconclusive [inhibitor, single point]"
5,CCOC(=O)c1sc(SC)c(C(C)=O)c1C,"inconclusive [inhibitor, single point]"
6,CCO[C@@H]1OC(C(=O)NCc2ccccc2)=C[C@H](c2csc3ccccc23)[C@H]1CCCO,"inconclusive [inhibitor, single point]"
7,COc1ccc(C(C)=O)cc1CN1CC=C(c2ccccc2)CC1,inactive
8,Cc1cc(NC(=O)CN2C(=O)NC(c3ccccc3)(c3ccc(C)c(C)c3)C2=O)no1 (stereo not given),"inconclusive [inhibitor, single point]"
9,C=CCc1cccc2cc(C(=O)N3CCN(c4ccccn4)CC3)c(=O)oc12,"inconclusive [inhibitor, single point]"
10,CS(=O)(=O)N(CC(=O)N1CCN(c2ccccc2F)CC1)c1cccc(C(F)(F)F)c1,"inconclusive [inhibitor, single point]"
11,Cn1nc(OC(=O)Nc2cccc(Cl)c2)cc1C(F)(F)F,inactive
12,C=C(C)CSc1nnc(CCCCCNC(=O)OC(C)(C)C)o1,"inconclusive [inhibitor, single point]"
13,COc1ccc(CCC(=O)Nc2ccc(Cl)c(S(=O)(=O)N3CCOCC3)c2)cc1OC,active: 11.2 µM
14,CN1CCN(CCOc2ccc(-c3ccccc3)cc2)CC1,"inconclusive [inhibitor, single point]"
15,COc1ccc(-c2nc(CN3CCC(C(=O)N4CCc5ccccc54)CC3)c(C)o2)cc1OC,"inconclusive [inhibitor, single point]"
16,COc1ccc(CCCC(=O)Nc2ccc(F)cc2)cc1,inactive
17,N#Cc1cc(-c2ccccc2)nn1-c1ccccc1,"inconclusive [inhibitor, partial curve]"
18,O=C(CSc1nc2ncccc2[nH]1)Nc1ccccc1-c1ccccc1,"inconclusive [inhibitor, single point]"
19,O=C(c1ccc([N+](=O)[O-])cc1)N(Cc1ccc(Br)cc1)N1C(=O)CCCC1=O,"inconclusive [inhibitor, full curve]"
20,O=C(/N=C1\NC(=O)C(F)(C(F)(F)F)S1)NC1CCCCC1 (stereo not given),"inconclusive [inhibitor, single point]"
21,COc1ccc2sc(-c3ccc(S(C)(=O)=O)cc3)c(C#CCO)c2c1,"inconclusive [inhibitor, partial curve]"
22,CCOc1ccc(C(C(=O)NC2CCCCC2)N(C(=O)Cc2cccs2)c2ccc(-n3cnnn3)c(OC)c2)cc1 (stereo not given),inactive
23,CN1CCN(S(=O)(=O)c2ccc3c(c2)OCCO3)CC1,inactive
24,COCCCn1cc(C(=O)c2cc(OC)ccc2OCC(=O)Nc2cc(C)on2)cc(C#N)c1=O,"inconclusive [inhibitor, partial curve]"

row,SMILES,Potency
1,COc1ccc(OC)c(NC(=O)COC(=O)c2c3c(nc4ccccc24)CCCC3)c1,active: 0.891 µM
2,O=C1Nc2ccccc2C1(O)Cc1ccncc1 (stereo not given),inactive
3,Fc1ccc(-c2nnn(Cc3ccc(F)cc3Cl)n2)cc1,inactive
4,COc1ccc(NC(=O)c2cccc(S(=O)(=O)N(C)c3ccccc3)c2)cn1,"inconclusive [inhibitor, single point]"
5,COc1ccc(OC)c(NC(=O)COc2coc(CN3CCc4ccccc43)cc2=O)c1,"inconclusive [inhibitor, partial curve]"
6,CCCN(CCC)c1nc(N)nc(-c2cc(Cl)ccc2OC)n1,"inconclusive [inhibitor, full curve]"
7,Cc1cccc(C)c1OCc1cc(C(=O)NC2CCC(O)CC2)no1 (stereo not given),inactive
8,COc1ccc(NC(=O)c2ccccc2OCc2ccc(F)cc2)c(OC)c1,"inconclusive [inhibitor, partial curve]"
9,COc1ccccc1NS(=O)(=O)c1cc(N)ccc1N1CCOCC1,"inconclusive [inhibitor, single point]"
10,COCCn1nc2cc(C(=O)NCc3cc(C(F)(F)F)cc(C(F)(F)F)c3)ccc2c1OC,"inconclusive [inhibitor, partial curve]"
11,CC(C)C(=O)Nc1cccc(NC(=S)NC(=O)c2ccccc2Cl)c1,"inconclusive [inhibitor, single point]"
12,COc1ccc(Cn2c(O)c(C=Nc3ccc(O)cc3)c3ccccc3c2=O)cc1,"inconclusive [inhibitor, partial curve]"
13,COC(=O)C(Cc1ccccc1)NC(=S)NC(=O)c1ccccc1 (stereo not given),"inconclusive [inhibitor, single point]"
14,CCOC(=O)CNC(=O)Cn1cnc2c(nnn2-c2ccc(C)cc2)c1=O,"inconclusive [inhibitor, single point]"
15,CCN1C(=O)C(CC(=O)Nc2ccc(F)cc2)N(CCCN2CCN(c3ccc(F)cc3)CC2)C1=S (stereo not given),"inconclusive [inhibitor, single point]"
16,CCn1cc(CNC(=O)c2cc(COc3ccc(F)cc3F)on2)cn1,"inconclusive [inhibitor, single point]"
17,COC(=O)c1cc(OC)c(OC)cc1NC(=O)c1ccc(C)cc1,"inconclusive [inhibitor, partial curve]"
18,CCOC(=O)[C@H]1[C@H]2COc3ccc(Cl)cc3[C@@H]2N2C(=O)c3cc(Br)ccc3NC(=O)[C@@]12C,"inconclusive [inhibitor, single point]"
19,COc1ccc(-c2csc(N(CCCN(C)C)C(=O)c3ccccc3F)n2)cc1,"inconclusive [inhibitor, partial curve]"
20,O=C(Cc1nc2ccccc2[nH]1)c1ccc(Cl)cc1,"inconclusive [inhibitor, full curve, poor fit]"
21,COc1ccc(N2CCN(c3cc(C)c4ccc(O)cc4n3)CC2)cc1,inactive
22,O=C(c1cccs1)n1nc(-c2ccccc2)nc1NCc1ccc(F)cc1,"inconclusive [inhibitor, partial curve, poor fit]"
